# Data taken from the supplement of paper PMC9446081.
# The campaign covered roughly 39,000 compounds. About 220 (0.56%) showed activity. The list shows a part of the results.
# Test system: Escherichia coli K-12 BW25113
# Test: relative growth (OD600 normalised to plate interquartile mean) (fraction); higher = less growth inhibition, active = 0.2 or less
# Settings: 50 µM; LB; incubation time: overnight (16-24 h)
# 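Note: static incubation at 37 °C against the wild-type strain, values averaged over two biological replicates.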
row,SMILES,relative growth
1,C[C@H](CO)N1C[C@H](C)[C@@H](CN(C)Cc2ccc(Oc3ccccc3)cc2)Oc2ccc(NC(=O)Cn3cnnn3)cc2CC1=O,inactive: 0.977
2,C[C@@H]1CN([C@H](C)CO)C(=O)c2cc(NC(=O)Nc3ccc(C(F)(F)F)cc3)ccc2O[C@@H](C)CCCCO[C@@H]1CN(C)C(=O)NC1CCCCC1,inactive: 1.04
3,Cc1noc(C)c1NC(=O)Nc1ccc2c(c1)C(=O)N([C@@H](C)CO)C[C@H](C)[C@H](CN(C)Cc1ccc(C(F)(F)F)cc1)OCCCC[C@@H](C)O2,inactive: 0.981
4,C[C@H](CO)N1C[C@H](C)[C@H](CN(C)S(C)(=O)=O)Oc2ccc(NC(=O)Cc3cn(C)c4ccccc34)cc2C1=O,inactive: 0.978
5,C=CC[C@@H](CC(=O)N(CCO)Cc1ccccc1)C(=O)N[C@H](COC(=O)[C@@H](CC=C)Cc1ccc(F)cc1)Cc1c[nH]c2ccccc12,inactive: 1.03
6,Cc1ccc(S(=O)(=O)Nc2ccc3c(c2)C(=O)N([C@@H](C)CO)C[C@@H](C)[C@H](CN(C)C(=O)NC2CCCCC2)OCCCC[C@@H](C)O3)cc1,inactive: 1.05
7,C[C@@H]1CN([C@@H](C)CO)C(=O)c2cc(NC(=O)Nc3ccc(F)cc3)ccc2O[C@@H](C)CCCCO[C@@H]1CN(C)C(=O)c1ccccc1,inactive: 1.04
8,C[C@H](NC(=O)C[C@@H]1C=C[C@H](NC(=O)CN2CCOCC2)[C@H](CO)O1)c1ccccc1,inactive: 1.02
9,CC(C)(C)C(=O)N[C@@H]1CC(=O)N(C2CC2)C1,inactive: 1
10,CC(=O)[C@@]12O[C@]3(COC[C@H](c4ccccc4)N3C1=O)[C@@H]1C(=O)N(C)C(=O)[C@@H]12,inactive: 0.964
11,COc1ccc(S(=O)(=O)N(C)C[C@@H]2Oc3c(NC(=O)Nc4cccc5ccccc45)cccc3C(=O)N([C@@H](C)CO)C[C@H]2C)cc1F,inactive: 0.985
12,COc1ccc(S(=O)(=O)N(C)C[C@@H]2Oc3ncc(C#CCN(C)C)cc3C(=O)N([C@H](C)CO)C[C@@H]2C)cc1,inactive: 0.984
13,C=CCOC(=O)[C@@H]1[C@H]2C(=O)O[C@H](c3ccccc3)[C@H](c3ccccc3)N2[C@H](c2ccc(OCCOC(=O)[C@@H]3C[C@@H]4C(=O)N[C@@H](CC(C)C)C(=O)N4[C@@H]3c3ccc(O)cc3)cc2)[C@@]12C(=O)Nc1ccc(I)cc12,inactive: 1.03
14,"COC1C(C(=O)O)OC(C)C(O)C1O.COC1OC(C(=O)O)C(O)C(O)C1O (configuration not stated) [""ALGINIC ACID [Mol Wt ~200,000; monomers shown]""]",inactive: 0.862
15,C[C@@H]1CCCCO[C@H](CN(C)C(=O)Nc2ccc3c(c2)OCO3)[C@@H](C)CN([C@@H](C)CO)C(=O)c2cc(NC(=O)C3CCCCC3)ccc2O1,inactive: 1.03
16,C[C@@H]1CCCCO[C@H](CN(C)C(=O)Nc2ccc(F)cc2)[C@@H](C)CN([C@H](C)CO)C(=O)c2cc(NC(=O)C3CCCCC3)ccc2O1,inactive: 0.992
17,C[C@H](CO)N1C[C@H](C)[C@@H](CN(C)CC2CC2)OCCCC[C@H](C)Oc2ccc(NC(=O)Nc3ccccc3)cc2C1=O,inactive: 1.02
18,CC(C)CC#Cc1ccc2c(c1)O[C@H](CN(C)S(=O)(=O)c1ccc(F)cc1)[C@@H](C)CN([C@H](C)CO)S2(=O)=O,inactive: 1.05
19,Cc1ccc(S(=O)(=O)N(C)C[C@@H]2Oc3ccc(NS(=O)(=O)c4ccccc4)cc3CC(=O)N([C@H](C)CO)C[C@H]2C)cc1,inactive: 1

row,SMILES,relative growth
1,C[C@H]1CN([C@@H](C)CO)S(=O)(=O)c2ccc(Br)cc2O[C@H]1CN(C)S(=O)(=O)c1ccccc1F,inactive: 1.02
2,C[C@H]1CN([C@@H](C)CO)C(=O)c2cc(NC(=O)CCN3CCOCC3)ccc2O[C@H]1CN(C)S(=O)(=O)c1cccs1,inactive: 1.03
3,O=C(C[C@H]1CC[C@H]2NC[C@@H](O)COC[C@@H]2O1)NCCN1CCCCC1,inactive: 0.988
4,Clc1ccc(C(c2ccccc2Cl)C(Cl)Cl)cc1 (configuration not stated),inactive: 0.849
5,Cc1ccc(S[C@]2(C(=O)NC3CC3)CC(=O)N(Cc3cc(C(F)(F)F)cc(C(F)(F)F)c3)[C@@H]2c2ccc(CO)cc2)cc1,inactive: 0.975
6,Cc1noc(C)c1S(=O)(=O)N(C)C[C@H]1Oc2ccc(NC(=O)CCC(F)(F)F)cc2CC(=O)N([C@@H](C)CO)C[C@H]1C,inactive: 0.994
7,C[C@@H]1CN([C@@H](C)CO)C(=O)c2cc(Br)cnc2O[C@@H]1CN(C)Cc1ccc(C(=O)O)cc1,inactive: 1.01
8,Cc1ccc(N2C[C@@H](N)CC2=O)cc1C,inactive: 1
9,C[C@@H]1CCCCO[C@H](CN(C)C(=O)NC2CCCCC2)[C@@H](C)CN([C@@H](C)CO)C(=O)c2cc(NS(=O)(=O)c3cccs3)ccc2O1,inactive: 1.01
10,NC[C@H]1CCS(=O)(=O)C1,inactive: 1.01
11,C[C@H]1CN([C@@H](C)CO)C(=O)c2cc(NS(=O)(=O)c3cccs3)ccc2O[C@H]1CN(C)S(=O)(=O)c1cccs1,inactive: 1.02
12,C[C@@H](NC(=O)C[C@H]1C=C[C@@H](NC(=O)CN2CCOCC2)[C@@H](CO)O1)c1ccccc1,inactive: 0.987
13,CCc1nc2ccc(C(=O)N3CCN(C(=O)c4ccco4)CC3)cn2c1N(C)C(=O)c1cccc(OC)c1,inactive: 0.965
14,Cc1ccc(S(=O)(=O)Nc2cccc3c2O[C@H](CN(C)Cc2ccc(Oc4ccccc4)cc2)[C@@H](C)CN([C@@H](C)CO)C3=O)cc1,inactive: 1.03
15,OCCc1ccccc1,inactive: 1.1
16,C[C@H](CO)N1C[C@H](C)[C@H](CN(C)C(=O)Nc2ccccc2)OCCCC[C@H](C)Oc2ccc(NC(=O)c3ccccc3)cc2C1=O,inactive: 0.896
17,COc1ccc(S(=O)(=O)Nc2ccc3c(c2)[C@@H]2C[C@@H](CC(=O)NCC4CC4)O[C@H](CO)[C@@H]2O3)cc1,inactive: 1.01
18,C[C@@H]1CN([C@H](C)CO)C(=O)c2cc(NC(=O)CCC(F)(F)F)ccc2O[C@@H](C)CCCCO[C@@H]1CN(C)C(=O)C1CCCCC1,inactive: 1.01
